The supplement of paper PMC10126150
Sequences with one replicate were seen in a single cluster, so their values are uncertain.

System: ATP
Assay: switch fluorescence ratio, 500 uM ATP over buffer (Cy3 cluster intensity, sum of 5 cycles each) (fold (ratio)); higher = stronger signal-on switching upon ATP binding; sequences stand for … in TCGTCGGCAGCGTCAGATGTGTATAAGAGACAGTTTTTTTTTTTTTTTTTTTTTTTTT…TC
Settings: aptamer strand: ATP DNA aptamer (quencher-CACCTGGGGGAGTATTGCGGAGGAAGG + anchor), 100 nM annealed; ATP concentration: 500 uM; one replicate
Procedure, shortened: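 The fluorescence ratio divides summed target-cycle Cy3 intensity by summed buffer-cycle Cy3 intensity for each cluster and is averaged per switch-domain sequence. Cy3-labelled switching-strand clusters on a modified Illumina MiSeq flow-cell were annealed to 100 nM quencher-labelled ATP aptamer, then imaged in selection buffer and again after 15 min with 500 uM ATP at 22 °C. Five such cycles were run, with NaOH stripping and re-annealing between them, and clusters outside 100-1000 RFU were excluded.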
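Further: ATP exposure 15 min at 22 °C before imaging.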

Sequence	switch fluorescence ratio
GAGGGGCTA	0.998
GTTAAAGGCG	1.04
GGGAGCACTG	1.82
GTGAATGCCA	1
ATCCGGACTG	1.01
AAATAGGC	0.953
ACTCAATTGT	0.981
TATTTATATG	1.01
GTGTCTCGA	1.02
ACTCGGGGAA	1.05
TGGGTACTAT	1.03
AAACTCAAGA	1.03
TGAAGCAGGT	1.02
CTGTAAATT	0.984
GAAAAGTCTT	1
TTAGTAATA	1.01
GGTCACATTT	1.01
CTACTCTCGT	1.01
TGGTGCAGCG	0.963
AGCGCGTTCG	0.98
GGGGGCT	1.05
GCGATTGCAC	1.03
CGGGGACATT	1.04

Sequence	switch fluorescence ratio
TAGATTACAT	1.01
CCTAACCAGG	2.61
GGTTGCGCCT	0.981
ATGACGTCCT	0.984
CTAACAGTTA	0.995
GGTGGTCT	0.992
AACGATTATG	1.04
CCATGCGTAT	1.04
GCTTGCTGAC	0.989
TTAGGATGGA	0.972
GTCAACGCAG	1.02
ATTAATCAAA	1.03
TGTCATGTAA	0.981
AGTTCGCGAG	1.05
GCTGTTTTAT	0.982
TATGGCATAA	0.995
ACATGCCTTT	1.08
AACTAATATT	1.04
CACATTTTA	0.992
GGTCCAGCGC	0.972
TAATCCCTGC	1.04
TCGTGTGGA	1.04
TAGTCGGCTT	0.993

Sequence	switch fluorescence ratio
GCCCTAGTTA	0.975
AGCATCGTAC	1.78
CTATTTGGAC	1
GGAATGTAGC	0.995
ATTGTAGGCT	1.01
GGTGATGCTG	1.06
CATACTGGGG	1
GGGCCCTGCG	0.971
CCGGCGATAG	4.25
AGCTTTAAGG	1.04
ACAGGATTCA	0.998
TAGCGTGTGT	1.02
CATACTCCTT	1.13
TGCTCATCAT	0.976
GTTACACGAC	1.13
GGGATTTGGA	1.06
CGCTGCCTCC	2.54
AGGCGTTATG	0.987
CACGGGACTG	1.21
TCACTTTATA	1.08
TTTGTCAGCC	0.994
AAAGGACTTT	0.969
GAACTTTTTG	1

Sequence	switch fluorescence ratio
GCGCAGGGG	1.04
TATGCGTCGC	1.04
GGGGATTCTT	1.02
GTCCCCAACG	1.05
TAAAGAGCTA	1.02
CCTCCATGAA	3.74
CCCACAGGGT	2.07
CGGTGCGGTA	1
CATAAGGGAG	1.04
AACAATTTGT	0.969
CTCTTTCATC	1
GTGAGACGAA	1
CTGACAAGGG	1.01
GGCCCTCGGA	0.975
TTCGAAATGG	1.11
CAATTAGTTA	0.987
ATCTCTTGAG	0.993
GTAATGCAGA	1.02
CCGGAAAAGG	0.967
TAAATCCGAA	1
GGGAGTCCCT	1.01
ACAATGTAT	1
AACACCGAGA	0.99

Sequence	switch fluorescence ratio
TGACTTCGGT	0.985
ATAGAAGATA	0.992
TTGCCCTGAG	1.03
AACAATTCT	1.05
ATGGCAACTT	1.04
CGCCCTTGAA	1.07
CTGAGTAACA	1.03
GAGGACGAGC	1.02
ATCCGTGGAT	1.02
TGGGCAACCC	1.17
CACTCTTGGG	0.98
TTAGACTCCC	1.32
GCCCGCATTA	4.14
TTGACATTAC	1.34
ACAGCCCAAC	1.14
TGGGGCCCCT	0.966
GAGGCCCCTG	1.02
AGAGCGACTT	1.07
TTATTGGAGT	1.2
GTCCGCAGGA	1.06
AACATAGCAG	1.02
TGGAACCAAT	0.969
TCAAGATTCA	0.975

Sequence	switch fluorescence ratio
GACAATGGGA	1.21
GTGATTCTG	0.98
TCCTACTTAT	1.08
ATCCTCATTT	1.02
CTATCTATGG	1.02
GCTAGCACAC	1.12
CACAAATTAT	1.01
CATGCTCTCA	1.01
CGAACGACAT	1.32
GAAAGGAGCG	1.03
TTGGGATCTG	0.998
AGTAAACGAA	0.975
GATAGCGA	1.01
TTTGCACTCA	1.09
TGGAACCCA	1.01
AGCAATTATC	4.13
GCTCACCGCT	1.14
TAAAGGCAGC	0.995
GAATTATTTC	0.973
TTGTAGCCAG	1.04
TGCTAAACTT	1.02
GGAGATGGAG	1.01
CGGAAGTCCT	1.02

Sequence	switch fluorescence ratio
TTCATTTGAA	0.98
CCCTCAGGTC	2.34
TCGAAATAGT	1.07
GAAACTTCAG	0.973
GCTACAGACG	1.21
TTGCTATCGT	0.979
TGTTTCAGTG	1.02
GCGGAAGTGG	0.991
ACACGATTCA	1.03
CCGGGACGTC	0.988
CCTGAAGTGC	1.38
TTTGCGCCG	0.968
CAGGGCTTCG	1.03
ACAGTTCGTT	0.934
CAACACTAAC	1.17
AATTGGGTCA	0.948
TAAGAGCCCT	1.02
CATGAGGTGT	1.04
GAGCGCTTGA	0.997
